Values marked as one replicate rest on one cluster of the flow cell; about a third of the high ones do not repeat.
test system: ATP; assay: switch fluorescence ratio, 500 uM ATP over buffer (Cy3 cluster intensity, sum of 5 cycles each) (fold (ratio)); higher = stronger signal-on switching upon ATP binding; sequences stand for … in TCGTCGGCAGCGTCAGATGTGTATAAGAGACAGTTTTTTTTTTTTTTTTTTTTTTTTT…TC; settings: aptamer strand: ATP DNA aptamer (quencher-CACCTGGGGGAGTATTGCGGAGGAAGG + anchor), 100 nM annealed; ATP concentration: 500 uM; one replicate
Procedure, shortened: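 Per cluster, summed Cy3 intensity from the target cycles was divided by that from the buffer cycles to give the fluorescence ratio, then averaged per switch-domain sequence. Clusters outside 100-1000 RFU were excluded. The Cy3-labelled switching-strand clusters, on a modified Illumina MiSeq flow-cell, were annealed to 100 nM quencher-labelled ATP aptamer and imaged in selection buffer, then after 15 min with 500 uM ATP at 22 °C, for five cycles with NaOH stripping and re-annealing between them.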
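Note: ATP exposure 15 min at 22 °C before imaging.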

Sequence | switch fluorescence ratio
CCTCTTGTGG | 1.04
CCTGAAAACG | 1.06
CCTGAAATAA | 1.17
CCTGAACCGA | 1.2
CCTGAACTTT | 1.02
CCTGAATAGG | 0.961
CCTGAATTGA | 0.964
CCTGACGTAT | 1.03
CCTGACTGAG | 1.07
CCTGAGCGGC | 1.06
CCTGAGCGTA | 1.15
CCTGAGGGGC | 1.08
CCTGAGTCAT | 1.12
CCTGATGGCG | 1.02
CCTGATTGCG | 1.11
CCTGCCTGCA | 1.56
CCTGCTTGCT | 1.07
CCTGGGTTAC | 1.53
CCTGGTACGA | 1.12
CCTGGTTTAA | 0.995
CCTGGTTTCT | 0.972
CCTGTAAGTT | 1.01
CCTGTGAACA | 0.999
CCTGTTATGC | 1.76
CCTTAATCGT | 1
CCTTACGTAG | 1.7

Sequence | switch fluorescence ratio
CCTTACTGCT | 1.07
CCTTAGGCTA | 1.4
CCTTATGACT | 0.992
CCTTATTACT | 1.05
CCTTCATGTC | 1.18
CCTTCCAGTA | 2.66
CCTTCCGTTG | 2.73
CCTTCCTGAG | 2.73
CCTTCGGATC | 3.4
CCTTCGTTAG | 3.09
CCTTCGTTTG | 1.45
CCTTCTCTT | 1.27
CCTTGAGATC | 1.04
CCTTGAGCTG | 1.59
CCTTGAGGGT | 0.929
CCTTGATCCT | 1.07
CCTTGCTCAG | 1.99
CCTTGGCTG | 1.03
CCTTGTGACC | 1.05
CCTTGTTACG | 1.15
CCTTTCGAAT | 1.18
CCTTTGTGAC | 1.49
CCTTTTAATT | 0.981
CCTTTTCTCA | 0.94
CGAAAAAAGT | 1.01
CGAAAAAGCA | 1.26

Sequence | switch fluorescence ratio
CGAAAAGGTT | 1.02
CGAAAATTAG | 0.958
CGAAACTTGC | 1.11
CGAAAGTCGG | 0.964
CGAAAGTT | 0.933
CGAAATCGAG | 1.07
CGAACACGTA | 1.17
CGAACCCGCT | 1.02
CGAACTACTC | 1.75
CGAAGAAATA | 1.02
CGAAGAGGGT | 1
CGAAGCACAA | 4.32
CGAAGCCTTC | 2.12
CGAAGCTGGG | 1.55
CGAAGGAGGC | 1.07
CGAAGGCTT | 0.969
CGAAGGGAAG | 1.02
CGAAGGGCAT | 0.979
CGAAGGTAGT | 0.982
CGAAGGTTG | 1.04
CGAAGTAACA | 1.05
CGAAGTAGGA | 1.01
CGAAGTATGA | 1.01
CGAAGTCTTG | 0.965
CGAATAGAGA | 0.965

From the supplement of paper PMC10126150
